The whole screen tested about 390,000 compounds, of which about 2,200 (0.56%) were called active. The shares of active, inactive and inconclusive entries below differ from those in the screen. Calls follow the shape of the dose curve; as a rule, active = well fitted inhibition curve with a large enough effect; inconclusive = small, poorly fitted or top-dose-only effect; inactive = no such curve, though single readings can be large or run the other way. Where the call is inconclusive, the potency comes from a doubtful curve fit.
target: Chromobox protein homolog 1 (Homo sapiens) (UniProt P83916); assay: HTS for Inhibitors of HP1-beta Chromodomain Interactions with Methylated Histone Tails; conditions: AlphaScreen HP1-beta / biotin-H3K9me3 peptide binding; series mostly up to 114 µM; also: nearly all actives have a fitted effect of over 70% in size
Method in brief: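 HP1-beta protein (50 nM final) preincubated 30 min at room temperature with biotinylated H3(1-18)K9me3 peptide (50 nM) in PBS pH 7.4, 0.01% Tween-20, then compound added for 30 min. AlphaScreen streptavidin donor/nickel chelate acceptor beads (10 ug/mL final), 30 min dark, luminescence read.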
Potency is read from the fitted curve at half-maximal effect; tags tell the direction and shape of the fitted curve.

Sequence of UniProt P83916 (P83916 whole entry, looked up): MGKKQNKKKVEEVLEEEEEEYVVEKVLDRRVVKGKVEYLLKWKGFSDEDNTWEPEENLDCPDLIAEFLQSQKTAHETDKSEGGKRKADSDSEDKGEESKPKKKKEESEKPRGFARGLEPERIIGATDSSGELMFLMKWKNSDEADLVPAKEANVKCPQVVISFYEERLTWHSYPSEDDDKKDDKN

SMILES	Potency
COc1ccc2oc(C)c(C(=O)c3ccc([N+](=O)[O-])cc3)c2c1	inconclusive: 22.4 µM [inhibitor, full curve]
Cc1nnc(NS(=O)(=O)c2ccc(N=Nc3ccc(N)nc3N)cc2)s1	inconclusive: 56.2 µM [inhibitor, single point]
Cc1c(C(N)=O)cc([N+](=O)[O-])cc1[N+](=O)[O-]	inactive
COCC(C)n1c(C)cc(C(=O)COC(=O)c2c(C)nn(-c3ccccc3)c2C)c1C (stereo not drawn)	inconclusive: 70.8 µM [inhibitor, partial curve, poor fit]
Cc1ccc2c(c1)sc1nc(-c3cc4ccccc4oc3=O)cn12	inactive
NC(CSS(=O)(=O)O)=NCCC12CC3CC(CC(O)(C3)C1)C2	inconclusive: 50.1 µM [inhibitor, partial curve]
Cc1oc(-c2ccc(Cl)cc2)nc1Cn1c(=O)cc(C)c2c(C)nn(-c3cccc(F)c3)c21	inconclusive: 89.1 µM [inhibitor, partial curve, poor fit]
O=C1/C(=C\c2ccco2)SC(=S)N1C1CCS(=O)(=O)C1 (stereo not drawn)	inconclusive: 50.1 µM [inhibitor, partial curve, poor fit]
COc1ccccc1-c1nc(C#N)c(NCc2ccc(F)cc2)o1	inconclusive: 79.4 µM [inhibitor, partial curve, poor fit]
CC(=O)NC1C(=O)N(CCN2CCOCC2)c2ccc(Br)cc21 (stereo not drawn)	inconclusive: 12.6 µM [inhibitor, full curve]
Cc1cc(C)c2c(c1)OC(=O)CC2c1ccc2c(c1)OCO2 (stereo not drawn)	inconclusive: 35.5 µM [inhibitor, single point]
CCCCN(C(=O)c1ccncc1)c1c(N)n(CCC)c(=O)[nH]c1=O	inactive
O=C(NC(=S)NC1CCC(O)CC1)c1ccco1 (stereo not drawn)	inactive
COc1ccc(-c2nc(C(N)=O)c3c(n2)n(-c2ccccc2OC)c(=O)n3C)c(OC)c1	inactive
O=C(c1ccc2c(c1)N(Cc1ccc(Cl)cc1)C(=O)c1ccccc1S2=O)N1CCN(c2ccccc2F)CC1 (stereo not drawn)	inactive
Cn1ccnc1SCC(=O)Nc1cccc(S(=O)(=O)N2CCCCCC2)c1	inactive
CCOC(=O)C1=C(C)N(c2ccc(OCC)cc2)C(=O)/C1=C\c1ccco1	active: 44.7 µM
Cc1nn(-c2ccccc2)c(Cl)c1/C=C1\SC(=S)N(C)C1=O	inconclusive: 1.26 µM [inhibitor, full curve, poor fit]
O=C(Nc1cccnc1)C(Cc1ccccc1)n1cccc1 (stereo not drawn)	inactive
CCc1ccc2oc(=O)cc(CN3CCC(C)CC3)c2c1	inactive
CC(=O)Nc1sc(N/N=C\c2cccc(Cl)c2)nc1-c1cccs1	inconclusive: 89.1 µM [inhibitor, single point]
O=C(NC(=S)Nc1ccc(N2CCOCC2)cc1)c1cccc(Cl)c1	inconclusive: 12.6 µM [inhibitor, full curve, poor fit]
N#C/C(=C\c1ccc(C(=O)O)cc1)S(=O)(=O)c1cc(Br)ccc1Br	inactive
O=c1[nH]c2ccc(Cl)cc2c(-c2ccccc2)c1[N+](=O)[O-]	inconclusive: 39.8 µM [inhibitor, partial curve, poor fit]
C#CCOCCOCCOCCNc1nc(N2CCOCC2)nc(N2CCN(C(=O)[C@H]([C@@H](C)CC)n3cc([C@@H](N)CO)nn3)CC2)n1	inconclusive: 39.8 µM [inhibitor, single point]

SMILES	Potency
Cc1ccc(/C=N/N2CCOCC2)s1	inactive
COc1ccc2c(C#N)c3ccccn3c2c1	inactive
CNc1nc(-c2c[nH]c3ccccc23)cs1	inconclusive: 56.2 µM [inhibitor, single point]
CCOC(=O)/C(C#N)=C1\C(=O)N(Cc2ccccc2)c2ccccc21	active: 14.1 µM
Cc1ccc(C)c(CN2CCN(c3ncccn3)CC2)c1	inconclusive: 28.2 µM [inhibitor, partial curve]
O=C(N/N=C/c1cccc2nccnc12)c1ccncc1	inactive
O=C(O)c1cccc(Nc2ccc([N+](=O)[O-])c3nonc23)c1	inconclusive: 56.2 µM [inhibitor, single point]
Nn1c(SCC(=O)Nc2nccs2)nnc1C1CC1	inactive
O=C(C[C@@H]1C/C=C\CC[C@@H](Cc2ccc(F)cc2)C(=O)OC[C@@H](Cc2ccccc2)NC1=O)NCCO	inactive
COc1ccc(NC(=O)CSc2nc3nc(-c4cccs4)cc(C(F)(F)F)c3c(=O)[nH]2)c(OC)c1	inconclusive: 79.4 µM [inhibitor, partial curve, poor fit]
COc1ccc(OCCn2ccnc2C)cc1	inconclusive: 50.1 µM [inhibitor, partial curve, poor fit]
Cc1ccc(C)c(S(=O)(=O)NCCN2CCOCC2)c1	inactive
COc1cccc(NC(=O)CN(C)C(=O)c2ccc(-c3cccc(C(F)(F)F)c3)o2)c1	inactive
Cc1ccc(C(=O)CC2(O)C(=O)N(Cc3ccccc3)c3ccccc32)c(C)c1 (stereo not drawn)	inconclusive: 14.1 µM [inhibitor, full curve]
Cc1ccc(NC(=O)CN(C)C(=O)Cc2c(Cl)cccc2Cl)cc1	inconclusive: 89.1 µM [inhibitor, partial curve, poor fit]
CCCCNC(=S)N1CCN(c2ccccc2Cl)CC1	inactive
COc1cccc(C=Nc2cc(C)on2)c1O	inactive
COc1cccc2cc(S(=O)(=O)c3ccccc3)c(=Nc3ccc4c(c3)OCCO4)oc12	inconclusive: 28.2 µM [inhibitor, partial curve]
CN(CCO)c1cc(NCCCN2CCC(Cc3ccccc3)CC2)c2nonc2c1[N+](=O)[O-]	inconclusive: 70.8 µM [inhibitor, partial curve]
Cc1ccc(-c2nn(-c3cc(Cl)ccc3[N+](=O)[O-])c(=O)c3ccccc23)cc1C	inconclusive: 39.8 µM [inhibitor, partial curve, poor fit]
CCc1nnc2c3ccccc3nc(N3CCN(c4cc(C)ccc4C)CC3)n12	inactive
C/C=C/c1ccc(OCC(O)CN(C)Cc2ccc(SC)cc2)c(OC)c1 (stereo not drawn)	inconclusive: 17.8 µM [inhibitor, full curve]
CCn1c(=O)n(CCOC)c(=O)c2c3c(sc21)CCCC3	inactive
Cc1ccc(-c2cn(-c3ccccc3)c(=S)[nH]2)cc1C	inconclusive: 25.1 µM [inhibitor, partial curve]
O=C(CSC1=NCCS1)Nc1nc2c(s1)CCCC2	inactive

SMILES	Potency
O=C(COC(=O)c1ccccc1)Nc1cccc(S(=O)(=O)NC2=NCCCCC2)c1	inconclusive: 22.4 µM [inhibitor, single point]
CCN(CC)c1ccc(NC(=O)c2cnc3ccccn3c2=O)c(C)c1	inconclusive: 31.6 µM [inhibitor, partial curve]
C#CCOCCOCCOCCNc1nc(N2CCN(C(=O)[C@H]([C@@H](C)CC)n3cc(CCC(=O)O)nn3)CC2)nc(N2CCN(C(=O)[C@H](CCCCN)n3cc(CCCC)nn3)CC2)n1	inactive
CC(C)(C)c1ccc(-c2nc(NCc3cccnc3)c3ccccc3n2)cc1	inactive
c1ccc(-c2cnc(SCCN3CCOCC3)n2CC2CCCO2)cc1 (stereo not drawn)	inconclusive: 22.4 µM [inhibitor, full curve]
CC(=O)Nc1c(C)nn(-c2ccccc2)c1N1CCC(C(=O)Nc2cccc(C(F)(F)F)c2)CC1	inactive
C/C(=C\c1ccccc1)CN1CCN(C(C)C)C(CCO)C1 (stereo not drawn)	inactive
COc1cc(OC)c2c(c1C(CCN1CCOCC1)c1ccc(N(C)C)cc1)OC(=O)CC2c1ccc(N(C)C)cc1 (stereo not drawn)	active: 14.1 µM
CC(=O)Oc1ccc(-c2csc(Nc3ccc(S(N)(=O)=O)cc3)n2)cc1	inactive
CCOC(=O)c1ccc(NC(=O)c2cc3c([nH]c2=O)CC(c2ccccc2)CC3=O)cc1 (stereo not drawn)	inactive
O=C1N=c2ccccc2=C1c1sc(=S)n(NC(=O)c2cccc(O)c2)c1O	inconclusive: 89.1 µM [inhibitor, single point]
CCCCC1CCC(CCCC(C)CCC(=O)O)CC1 (stereo not drawn)	inconclusive: 89.1 µM [inhibitor, partial curve, poor fit]
Cc1ccccc1Cn1c(C(=O)OC(C)C)cc2c1ccn2C	inconclusive: 56.2 µM [inhibitor, partial curve, poor fit]
CCOc1ccccc1NC(=O)c1ccc2c(c1)CCCN2S(C)(=O)=O	inactive
COCCNc1cc(N2CCN(C3CCCCC3)CC2)c2noc3c2c1C(=O)c1ccccc1-3	inconclusive: 50.1 µM [inhibitor, partial curve]
Cc1ccc(C)c(Cn2c(=O)n(CCCC(=O)NCc3ccco3)c(=O)c3sccc32)c1	inconclusive: 39.8 µM [inhibitor, single point]
Nc1nc(Nc2cccc(Cl)c2)nc(NCCO)c1[N+](=O)[O-]	inconclusive: 31.6 µM [inhibitor, single point]
COc1ccc(CN2CCSCC2)cc1C	inconclusive: 50.1 µM [inhibitor, single point]
CCc1nnc2c(N(C)C)nc3ccccc3n12	inconclusive: 35.5 µM [inhibitor, single point]
C(=N\Nc1nc(Nc2ccccc2)nc(Nc2ccccc2)n1)/c1cccnc1	inactive
O=C1COc2ccc(S(=O)(=O)NCCc3ccccc3)cc2N1	inconclusive: 89.1 µM [inhibitor, single point]
O=C1NC2CCCCC2C(=O)N1OS(=O)(=O)c1ccccc1 (stereo not drawn)	active: 50.1 µM
COc1ccc2c([N+](=O)[O-])c(Cl)[nH]c2c1	inconclusive: 39.8 µM [inhibitor, partial curve]

Source: PubChem BioAssay AID540317 (National Center for Advancing Translational Sciences (NCATS), 2011)
